Assay results: publication PMC4336329 (PLoS ONE, 2015)
Out of some 310,000 compounds screened, about 2,200 (0.71%) showed an effect of 50% or more. Effects have a minus sign here. The list shows a part of the results.

Each compound was assayed against human ether-à-go-go-related gene (hERG) potassium channel (human, UniProt Q12809) (assay: primary screen, population patch clamp on CHO cells stably expressing hERG).
human ether-à-go-go-related gene (hERG) potassium channel, sequence (Q12809 whole entry, looked up): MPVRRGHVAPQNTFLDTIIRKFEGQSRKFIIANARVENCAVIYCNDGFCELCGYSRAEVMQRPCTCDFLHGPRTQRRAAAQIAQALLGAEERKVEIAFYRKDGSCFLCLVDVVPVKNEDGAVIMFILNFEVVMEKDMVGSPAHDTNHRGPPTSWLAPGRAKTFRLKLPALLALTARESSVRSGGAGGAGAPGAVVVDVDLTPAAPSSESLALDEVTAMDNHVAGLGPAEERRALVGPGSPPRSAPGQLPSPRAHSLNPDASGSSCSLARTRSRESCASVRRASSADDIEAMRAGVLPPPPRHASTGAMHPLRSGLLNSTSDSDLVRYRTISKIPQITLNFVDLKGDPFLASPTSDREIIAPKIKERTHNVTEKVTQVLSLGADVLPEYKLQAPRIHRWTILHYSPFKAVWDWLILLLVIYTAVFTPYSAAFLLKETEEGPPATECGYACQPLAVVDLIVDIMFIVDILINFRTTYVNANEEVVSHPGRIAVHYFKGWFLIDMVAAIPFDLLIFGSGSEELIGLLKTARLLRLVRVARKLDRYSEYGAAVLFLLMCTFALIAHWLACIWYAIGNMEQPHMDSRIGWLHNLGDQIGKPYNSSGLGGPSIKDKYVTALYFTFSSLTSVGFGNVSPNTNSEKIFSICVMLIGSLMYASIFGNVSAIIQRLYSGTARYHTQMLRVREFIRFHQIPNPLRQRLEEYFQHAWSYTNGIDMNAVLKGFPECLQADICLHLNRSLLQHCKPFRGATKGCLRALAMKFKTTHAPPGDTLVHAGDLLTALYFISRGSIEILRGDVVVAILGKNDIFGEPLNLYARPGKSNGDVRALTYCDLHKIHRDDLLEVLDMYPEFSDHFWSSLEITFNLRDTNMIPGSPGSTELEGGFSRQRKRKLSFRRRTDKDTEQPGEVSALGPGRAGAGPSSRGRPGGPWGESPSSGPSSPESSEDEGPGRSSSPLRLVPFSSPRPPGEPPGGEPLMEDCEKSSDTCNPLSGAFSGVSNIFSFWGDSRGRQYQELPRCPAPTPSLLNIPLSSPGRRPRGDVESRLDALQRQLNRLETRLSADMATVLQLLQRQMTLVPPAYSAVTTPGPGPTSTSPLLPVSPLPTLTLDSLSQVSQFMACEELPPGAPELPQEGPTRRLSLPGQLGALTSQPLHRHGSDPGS

| Compound | hERG current change (%, negative = inhibition) at 1uM [%] |
| --- | --- |
| Cc1cc(S(=O)(=O)N2CCc3ccccc3C2)ccc1F | 8.84 |
| Cc1[nH]c2nc3ccccc3n2c(=O)c1CCC(C)C | 16.4 |
| CC(C)CNC(=O)CN1c2cccc3cccc(c23)S1(=O)=O | 7.96 |
| COCC(=O)Nc1c(C(=O)Nc2ccc3c(c2)OCO3)oc2ccccc12 | 5.88 |
| CCOC(=O)c1ccc(NC(=O)N2CCN(C(=O)c3ccco3)CC2)cc1 | 15.1 |
| Cn1c2ccccc2c2cc(/C=N/NC(=O)c3ccc(N)cc3)ccc21 | 11.1 |
| O=C(O)CNS(=O)(=O)c1ccc(F)cc1 | 20.1 |
| COc1ccc(-c2ccc3oc(-c4ccsc4)c(-c4ccc(OC)cc4)c3c2)cc1 | 9.23 |
| Cc1onc(-c2ccccc2)c1C(=O)NC(C)CCc1ccccc1 (centres unmarked) | 13.4 |
| O=C1/C(=C/c2cccnc2)Oc2cc(OS(=O)(=O)c3ccc(F)cc3)ccc21 | -2.14 |
| Cc1ccc(N(C(=O)CNC(=O)c2ccco2)C(C(=O)NCC2CCCO2)c2ccccc2)cc1 (centres unmarked) | -1.46 |
| CCOC(=O)c1cc2c(C)n(-c3ccc(C)cc3)c(C)c2ccc1=O | -13.6 |
| Cc1ccc(-c2nn(CC(=O)NCc3ccco3)c(=O)c3ccccc23)cc1 | 5.08 |
| COC(=O)c1[nH]c2ccc(F)cc2c1NC(=O)Nc1ccc(OC)cc1 | 7.73 |
| CNc1c([N+](=O)[O-])cnn1-c1ccc(Cl)cc1Cl | 1.93 |
| O=C(CSc1nnc(COc2ccc(Cl)cc2)o1)N1CCCCC1 | -5.25 |
| CNC(=O)c1ccsc1NC(=O)CS(=O)(=O)c1ccc(Cl)cc1 | -5.38 |
| Cc1noc(C)c1CN1C(=O)c2cccc([N+](=O)[O-])c2C1=O | 18.8 |
| Cc1ccc(C)c(S(=O)(=O)N2CCN(C(=O)/C=C/c3ccco3)CC2)c1 | 1.6 |
| CCOC(=O)C1=C(C)NC(C)=C(C(=O)OCC)C1/C=C/c1ccccc1OC | 8.28 |
| Cc1nn(-c2ccccc2)c(NC(=O)c2cccs2)c(-c2ccc(Cl)cc2)c1=O | 13.2 |
| CCCCOC(=O)c1ccc(NC(C)=O)cc1 | -6.18 |

| Compound | hERG current change (%, negative = inhibition) at 1uM [%] |
| --- | --- |
| COc1ccc(-n2c(COc3ccccc3)nnc2SCc2ccc(C#N)cc2)cc1 | 2.48 |
| Cc1cccc(C)c1NC(=O)CCCSc1nnc(-c2ccco2)o1 | -10.7 |
| O=c1ccn([C@H]2C[C@H](O)[C@@H](CO)O2)c(=O)[nH]1 | -1.42 |
| Cc1ccc(Cl)cc1N1CCN(C(=O)C(C)n2ncn3cccc3c2=O)CC1 (centres unmarked) | 15.3 |
| C=CCn1c(-c2cccc(OCC)c2)n[nH]c1=S | -5.08 |
| COc1ccc2cc(C(c3nnnn3Cc3ccccc3)N3CCCCCC3)c(=O)[nH]c2c1 (centres unmarked) | -4.41 |
| CC(=O)c1sc2nc(SCC(=O)NCCc3ccccc3)[nH]c(=O)c2c1C | 8.64 |
| CCCC1CC(C(=O)Nc2ccccc2)C(=O)O1 (centres unmarked) | 8.16 |
| CC1CN(C(=O)C2CCCN2S(=O)(=O)c2ccc(Cl)cc2)CC(C)O1 (centres unmarked) | 9.01 |
| Nc1ccccc1-c1nnc(SCc2ccccc2Cl)[nH]c1=O | 8.25 |
| COc1ccc(N(C(=O)CSCC(=O)Nc2cc(C)on2)C(C(=O)NC2CCCCC2)c2ccc(O)c(O)c2)cc1 (centres unmarked) | 12 |
| COc1cc(C(F)(F)F)nc2c(Br)c(C(C)(C)C)nn12 | 13.2 |
| COc1ccc(NC(=O)CSc2nnnn2-c2ccc(OC)cc2)cc1 | 10.2 |
| COc1cc(C(=O)OCC(=O)N2CCC(C)CC2)cc2c1OCCO2 | 11.4 |
| CC1(CCc2ccccc2)NC(=S)N(c2ccc(Cl)cc2)N1 (centres unmarked) | 8.93 |
| COc1ccc(C2(C)NC(=O)N(CC(=O)NC3(C#N)CCCCC3)C2=O)cc1 (centres unmarked) | 8.72 |
| O=C(C[n+]1ccc(-c2ccccc2)cc1)Nc1ccc([N+](=O)[O-])cc1.[Br-] | -2.42 |
| CCc1cc(C(=O)NCC2CCCO2)sc1C (centres unmarked) | 12.9 |
| Cc1cccc2sc(NNC(=O)c3ccc(S(=O)(=O)N4CC(C)CC(C)C4)cc3)nc12 (centres unmarked) | 13.4 |
| CSCCOC(=O)c1[nH]c2c(c1C)C(=O)CC(c1ccco1)C2 (centres unmarked) | 2.07 |
| CCCCN(C)C(=O)c1ccc2c(c1)N(CC)C(=O)c1ccccc1S2=O (centres unmarked) | 11.7 |
| CC1(c2nnc(-c3ccc(Cl)cc3)o2)CC(c2ccncc2)=NO1 (centres unmarked) | 7.93 |
